Test results from the supplement of paper PMC4967469.
The IC50 comes from the fitted curve, where viability falls to half of the control; a limit (>, <) means that the fit lies beyond the doses tested. AUC sums up the same curve from the lowest dose to the 256-fold higher top dose; the more sensitive the line, the further below 1. Any top dose called inferred is not printed in the source and was worked back from the curve model.

compound: O=C1NC(=O)/C(=C\c2ccc3nccnc3c2)S1 [AS605240]; assay: Viability of human cancer cell lines after 72 h of drug (GDSC screen); conditions: top dose inferred
Description: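 Human cancer cell lines in 384-well plates, medium with 10% serum, drug for 72 h over a 256-fold dose range (nine 2-fold or five 4-fold steps up to the top dose). Adherent lines were fixed and stained with the nucleic acid dye Syto60, suspension lines read with resazurin; signal relative to control wells, capped at 0 and 100%. One two-parameter sigmoid per drug and line, fitted in a mixed model over all curves with the slope shared within a line.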

Cell Line	AUC	IC50
BICR78 (head and neck, adherent, top dose 20 µM)	0.902	> 20 µM
BL-41 (Burkitt lymphoma, suspension, top dose 20 µM)	0.868	11.4 µM
BPH-1 (prostate, adherent, top dose 20 µM)	0.859	19.6 µM
BT-20 (breast, adherent, top dose 20 µM)	0.813	14.2 µM
BT-474 (breast, adherent, top dose 20 µM)	0.83	14.6 µM
BT-483 (breast, adherent, top dose 20 µM)	0.849	> 20 µM
BV-173 (chronic myeloid leukaemia, suspension, top dose 20 µM)	0.81	9.01 µM
Becker (glioma, adherent, top dose 20 µM)	0.939	> 20 µM
BxPC-3 (pancreas, adherent, top dose 20 µM)	0.915	> 20 µM
C2BBe1 (large intestine, adherent, top dose 20 µM)	0.843	17.1 µM
C3A (liver, adherent, top dose 20 µM)	0.988	> 20 µM
C32 (melanoma, adherent, top dose 20 µM)	0.457	0.946 µM
C-4-I (cervix, adherent, top dose 20 µM)	0.978	> 20 µM
C-33-A (cervix, adherent, top dose 20 µM)	0.855	16 µM
CA46 (Burkitt lymphoma, suspension, top dose 20 µM)	0.854	17.6 µM
CADO-ES1 (Ewing sarcoma, suspension, top dose 20 µM)	0.718	5.26 µM
CAKI-1 (kidney, adherent, top dose 20 µM)	0.846	> 20 µM
CAL-12T (non-small cell lung carcinoma, adherent, top dose 20 µM)	0.591	2.29 µM
CAL-27 (head and neck, adherent, top dose 20 µM)	0.786	8.82 µM
CAL-29 (bladder, adherent, top dose 20 µM)	0.746	6.75 µM
CAL-33 (head and neck, adherent, top dose 20 µM)	0.833	13 µM

Cell Line	AUC	IC50
CAL-39 (cervix, adherent, top dose 20 µM)	0.806	10.7 µM
CAL-51 (breast, adherent, top dose 20 µM)	0.955	> 20 µM
CAL-54 (kidney, adherent, top dose 20 µM)	0.852	19 µM
CAL-62 (thyroid, adherent, top dose 20 µM)	0.872	17.4 µM
CAL-72 (osteosarcoma, adherent, top dose 20 µM)	0.984	> 20 µM
CAL-78 (chondrosarcoma, adherent, top dose 20 µM)	0.986	> 20 µM
CAL-85-1 (breast, adherent, top dose 20 µM)	0.842	> 20 µM
CAL-120 (breast, adherent, top dose 20 µM)	0.864	> 20 µM
CAL-148 (breast, suspension, top dose 20 µM)	0.957	> 20 µM
CAMA-1 (breast, adherent, top dose 20 µM)	0.95	> 20 µM
CAPAN-1 (pancreas, adherent, top dose 20 µM)	0.841	16.2 µM
CAS-1 (glioma, adherent, top dose 20 µM)	0.972	> 20 µM
CCF-STTG1 (glioma, adherent, top dose 20 µM)	0.988	> 20 µM
CCK-81 (large intestine, adherent, top dose 20 µM)	0.901	> 20 µM
CCRF-CEM (lymphoblastic leukaemia, suspension, top dose 20 µM)	0.783	7.05 µM
CESS (acute myeloid leukaemia, suspension, top dose 20 µM)	0.787	7.4 µM
CFPAC-1 (pancreas, adherent, top dose 20 µM)	0.942	> 20 µM
CGTH-W-1 (thyroid, adherent, top dose 20 µM)	0.961	> 20 µM
CHL-1 (melanoma, adherent, top dose 20 µM)	0.907	> 20 µM
CHP-134 (neuroblastoma, suspension, top dose 20 µM)	0.939	> 20 µM
CHP-212 (neuroblastoma, adherent, top dose 20 µM)	0.041	< 0.0781 µM
